The entries are a selection whose mix differs from that of the whole data set. For part of these data: At the low end of the ranking the order means little. Some of the results follow. For part of these data: Construct or isoform of the protein are uncertain.

Common to all, as to test: universal protein binding microarray (PBM)
Common to all, as to conditions: transcription factors of Arabidopsis thaliana; high values mean tight binding; most listed sequences are background and not binding sites; double strand, one strand shown

In one assay the target is T1, GST-ANAC092(1-176) (UniProt Q9FKA0).
T1 sequence: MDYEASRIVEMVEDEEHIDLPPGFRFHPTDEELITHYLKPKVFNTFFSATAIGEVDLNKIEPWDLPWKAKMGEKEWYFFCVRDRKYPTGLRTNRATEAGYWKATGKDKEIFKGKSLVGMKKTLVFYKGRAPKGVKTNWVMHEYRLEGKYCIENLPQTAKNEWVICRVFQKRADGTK

For the next assay, the target named is GST-NTL6(1-168) (UniProt Q9SCK6).
Sequence of UniProt Q9SCK6 (Q9SCK6 1-168): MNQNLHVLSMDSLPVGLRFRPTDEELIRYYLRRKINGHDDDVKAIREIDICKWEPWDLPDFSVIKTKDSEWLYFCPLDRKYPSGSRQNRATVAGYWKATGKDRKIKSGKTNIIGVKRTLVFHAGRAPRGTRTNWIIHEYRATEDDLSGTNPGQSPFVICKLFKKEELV
The next assay deals with T2, GST-ANAC055(1-171) (UniProt Q9LDY8).
T2 sequence: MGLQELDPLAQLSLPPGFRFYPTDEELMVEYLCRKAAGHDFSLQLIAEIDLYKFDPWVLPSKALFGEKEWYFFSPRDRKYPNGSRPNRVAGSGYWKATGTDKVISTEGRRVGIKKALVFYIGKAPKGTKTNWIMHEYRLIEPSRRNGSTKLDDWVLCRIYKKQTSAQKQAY

In another assay the target is T3, GST-ATAF1 NAC domain (UniProt Q39013).
T3 sequence: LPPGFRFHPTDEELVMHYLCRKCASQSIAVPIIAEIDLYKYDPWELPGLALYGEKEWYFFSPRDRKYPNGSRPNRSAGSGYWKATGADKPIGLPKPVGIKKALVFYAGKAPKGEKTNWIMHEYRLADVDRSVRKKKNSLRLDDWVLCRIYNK

The target of assay [1] is T4, GST-ANAC092(1-285) full length (UniProt Q9FKA0).
T4 sequence: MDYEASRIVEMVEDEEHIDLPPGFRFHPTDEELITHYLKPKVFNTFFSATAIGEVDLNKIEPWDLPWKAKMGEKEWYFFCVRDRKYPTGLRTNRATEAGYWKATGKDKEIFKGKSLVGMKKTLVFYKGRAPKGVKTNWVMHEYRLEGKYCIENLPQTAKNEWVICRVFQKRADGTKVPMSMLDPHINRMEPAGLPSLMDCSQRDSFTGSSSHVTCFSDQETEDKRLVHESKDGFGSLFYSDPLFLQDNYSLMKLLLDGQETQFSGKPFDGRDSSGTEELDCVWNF

For a further assay, the target named is T5, GST-NAP(1-166) (UniProt O49255).
T5 sequence: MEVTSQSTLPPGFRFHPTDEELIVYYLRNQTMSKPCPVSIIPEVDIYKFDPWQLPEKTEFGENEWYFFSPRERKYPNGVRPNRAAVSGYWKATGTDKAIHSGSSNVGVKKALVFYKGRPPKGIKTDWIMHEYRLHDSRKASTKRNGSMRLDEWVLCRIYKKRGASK

In the next assay the target is T6, GST-NST2(1-184) (UniProt Q9M274).
T6 sequence: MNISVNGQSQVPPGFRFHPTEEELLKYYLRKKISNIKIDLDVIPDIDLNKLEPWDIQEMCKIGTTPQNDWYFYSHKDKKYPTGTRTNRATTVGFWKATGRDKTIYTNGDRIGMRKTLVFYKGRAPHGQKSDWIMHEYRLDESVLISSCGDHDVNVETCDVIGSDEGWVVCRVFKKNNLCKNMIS

Another assay has as its target T7, GST-NTL8 NAC domain (UniProt Q9XIN7).
T7 sequence: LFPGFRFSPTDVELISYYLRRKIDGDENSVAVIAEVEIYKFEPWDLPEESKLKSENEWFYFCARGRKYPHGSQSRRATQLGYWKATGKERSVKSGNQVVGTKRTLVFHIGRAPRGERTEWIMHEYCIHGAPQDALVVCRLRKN

Another assay concerns the target T8, GST-SND1(1-203) (UniProt Q9LPI7).
T8 sequence: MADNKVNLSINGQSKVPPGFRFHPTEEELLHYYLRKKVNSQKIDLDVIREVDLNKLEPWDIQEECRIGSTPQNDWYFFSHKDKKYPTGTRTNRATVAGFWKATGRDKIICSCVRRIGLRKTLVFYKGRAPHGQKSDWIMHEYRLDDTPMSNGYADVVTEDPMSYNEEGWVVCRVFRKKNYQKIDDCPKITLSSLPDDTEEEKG

The next assay concerns the target T9, GST-VND3 NAC domain (UniProt Q9FH59).
T9 sequence: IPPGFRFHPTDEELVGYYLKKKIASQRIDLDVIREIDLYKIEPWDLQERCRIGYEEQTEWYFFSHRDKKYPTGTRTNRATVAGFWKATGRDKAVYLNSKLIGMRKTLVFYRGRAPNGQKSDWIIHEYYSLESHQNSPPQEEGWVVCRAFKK

The target in another assay is T10, GST-VND7 NAC domain (UniProt Q9C8W9).
T10 sequence: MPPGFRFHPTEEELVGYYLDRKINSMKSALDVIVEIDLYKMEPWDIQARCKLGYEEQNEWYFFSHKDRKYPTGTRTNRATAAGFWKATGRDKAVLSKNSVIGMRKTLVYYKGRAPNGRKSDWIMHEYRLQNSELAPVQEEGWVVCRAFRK

Assay [2] addresses T11, GST-VOZ2 (Arabidopsis thaliana) (UniProt Q9SLB9).
T11 sequence: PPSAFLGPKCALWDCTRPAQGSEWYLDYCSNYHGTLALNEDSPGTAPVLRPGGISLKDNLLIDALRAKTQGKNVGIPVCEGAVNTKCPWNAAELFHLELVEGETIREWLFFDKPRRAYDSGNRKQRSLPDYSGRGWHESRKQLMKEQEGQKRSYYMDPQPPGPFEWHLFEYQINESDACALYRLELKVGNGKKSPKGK

For a further assay, the target named is T12, GST-ANAC019 NAC domain (UniProt Q9C932).
T12 sequence: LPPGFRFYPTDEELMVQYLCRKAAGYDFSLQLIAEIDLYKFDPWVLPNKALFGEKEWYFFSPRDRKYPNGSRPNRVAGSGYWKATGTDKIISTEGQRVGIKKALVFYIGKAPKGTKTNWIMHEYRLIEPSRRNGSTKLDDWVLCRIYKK

On to GACCAAGA, for which the binding signal in the assay with GST-ANAC092(1-176) was -0.0519 E-score; with GST-NTL6(1-168) it was 0.0383 E-score; with GST-ANAC055(1-171), -0.0397 E-score; with GST-ATAF1 NAC domain, -0.11 E-score; in assay [1], -0.154 E-score; with GST-NAP(1-166), -0.0199 E-score. Further, the binding signal with GST-NST2(1-184) was 0.0202 E-score; with GST-NTL8 NAC domain it was -0.0424 E-score; with GST-SND1(1-203), -0.0481 E-score; with GST-VND3 NAC domain it was -0.133 E-score; with GST-VND7 NAC domain it was -0.0243 E-score; in [2], -0.0623 E-score.
Regarding TGGGTCAA, the binding signal in the assay with GST-NTL6(1-168) is -0.108 E-score; with GST-ANAC019 NAC domain, 0.00605 E-score; with GST-ANAC055(1-171), -0.055 E-score; with GST-ATAF1 NAC domain, -0.0702 E-score; in assay [1], 0.159 E-score; with GST-NAP(1-166), -0.0251 E-score. For the same sequence, the binding signal with GST-NST2(1-184) is -0.00125 E-score; with GST-NTL8 NAC domain it was 0.0706 E-score; with GST-SND1(1-203), 0.0162 E-score; with GST-VND3 NAC domain, -0.00758 E-score; in the assay with GST-VND7 NAC domain, -0.0843 E-score; in assay [2], -0.00899 E-score.
As to AATTTGAC, the binding signal with GST-ANAC092(1-176) is -0.0938 E-score; in the assay with GST-NTL6(1-168), -0.165 E-score; with GST-ANAC019 NAC domain it was -0.0778 E-score; with GST-ATAF1 NAC domain, 0.237 E-score; in assay [1], 0.045 E-score; in the assay with GST-NAP(1-166) it was 0.003 E-score. Also, the binding signal was 0.0346 E-score with GST-NST2(1-184); -0.07 E-score in the assay with GST-NTL8 NAC domain; -0.0456 E-score in the assay with GST-SND1(1-203); 0.0556 E-score with GST-VND3 NAC domain; -0.0431 E-score with GST-VND7 NAC domain; 0.186 E-score in assay [2].
On to CAGTCAAG, for which the binding signal in the assay with GST-NTL6(1-168) is -0.103 E-score; in the assay with GST-ANAC019 NAC domain, -0.00847 E-score; with GST-ANAC055(1-171) it was -0.0801 E-score; with GST-ATAF1 NAC domain, -0.0434 E-score; with GST-NAP(1-166), -0.00449 E-score; in the assay with GST-NST2(1-184), -0.0465 E-score. Besides, the binding signal was -0.088 E-score with GST-SND1(1-203), -0.142 E-score with GST-VND3 NAC domain, -0.109 E-score with GST-VND7 NAC domain and -0.108 E-score in assay [2].
As for GTTGACCA, the binding signal was -0.0983 E-score with GST-NTL6(1-168); 0.0144 E-score with GST-ANAC019 NAC domain; 0.0101 E-score with GST-ANAC055(1-171); 0.0254 E-score in the assay with GST-ATAF1 NAC domain; -0.005 E-score in assay [1]; -0.00293 E-score with GST-NAP(1-166). For the same sequence, the binding signal was -0.0132 E-score with GST-NST2(1-184); -0.0933 E-score with GST-NTL8 NAC domain; -0.119 E-score in the assay with GST-SND1(1-203); 0.0191 E-score in the assay with GST-VND3 NAC domain; -0.0105 E-score in the assay with GST-VND7 NAC domain; 0.0502 E-score in assay [2].
Consider AGTCAACT, for which the binding signal with GST-ANAC092(1-176) was -0.0348 E-score; in the assay with GST-NTL6(1-168), -0.00897 E-score; with GST-ANAC055(1-171), -0.0101 E-score; in [1], 0.0028 E-score; in the assay with GST-NAP(1-166), -0.0835 E-score; with GST-NST2(1-184), -0.039 E-score. The binding signal is -0.0282 E-score with GST-NTL8 NAC domain; 0.0114 E-score with GST-SND1(1-203); 0.0667 E-score with GST-VND3 NAC domain; 0.0783 E-score with GST-VND7 NAC domain; 0.00936 E-score in [2].
